Like-named read-outs stand apart in the source and are kept apart here.
T1: Human HER4 Protein, His Tag (Sino Biological, Cat. No. 10363-H08H) (human, UniProt Q15303 26-649)
T1 construct: bought reagent; not shown: His tag
T1 sequence (looked up): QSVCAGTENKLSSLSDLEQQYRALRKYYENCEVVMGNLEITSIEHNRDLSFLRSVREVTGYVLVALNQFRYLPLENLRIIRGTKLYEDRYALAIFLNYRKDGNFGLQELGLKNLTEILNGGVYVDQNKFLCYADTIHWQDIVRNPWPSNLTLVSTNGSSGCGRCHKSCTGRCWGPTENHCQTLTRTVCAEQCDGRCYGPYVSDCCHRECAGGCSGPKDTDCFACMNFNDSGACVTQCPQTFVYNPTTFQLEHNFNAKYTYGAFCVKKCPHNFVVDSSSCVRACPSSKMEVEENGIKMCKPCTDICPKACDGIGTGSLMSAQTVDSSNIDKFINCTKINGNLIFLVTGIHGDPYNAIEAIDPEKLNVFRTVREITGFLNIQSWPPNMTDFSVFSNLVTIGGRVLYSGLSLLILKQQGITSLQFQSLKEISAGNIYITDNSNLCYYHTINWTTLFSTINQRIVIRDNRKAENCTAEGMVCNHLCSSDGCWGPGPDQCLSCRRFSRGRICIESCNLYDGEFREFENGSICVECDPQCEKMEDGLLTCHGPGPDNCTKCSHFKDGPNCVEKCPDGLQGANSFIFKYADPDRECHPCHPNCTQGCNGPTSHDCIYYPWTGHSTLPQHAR


Assays:
[1] = biological target: T2, Her2/ERBB2 Protein, Human, Recombinant (ECD, His Tag) (human, UniProt P04626 partial chain); assay: ELISA, coated HER2 ECD-His
T2 construct: extracellular domain; bought reagent; also called human HER2 antigen; recombinant human HER2; not shown: His tag

[2] = biological target: T2, Her2/ERBB2 Protein, Human, Recombinant …; assay: ELISA, coated HER2 ECD-His; remark: listed apart in the source
[3] = biological target: T2, Her2/ERBB2 Protein, Human, Recombinant …; assay: ELISA, coated HER2 ECD-His; remark: listed apart in the source
[4] = biological target: T1, Human HER4 Protein, His Tag (Sino …); assay: ELISA, coated HER4-His
[5] = biological target: T3, Human HER2, His Tag (ACRO, Cat. No. HE2-H5225) (human, UniProt P04626 partial chain); assay: ELISA, coated human HER2-His
T3 construct: bought reagent; not shown: His tag

[6] = biological target: T4, Human HER3 Protein, His Tag (ACRO, Cat. No. ER3-H5223) (human, UniProt P21860 partial chain); assay: ELISA, coated HER3-His
T4 construct: bought reagent; not shown: His tag

[7] = biological target: T3, Human HER2, His Tag (ACRO, Cat. No. …); assay: ELISA, coated human HER2-His; remark: listed apart in the source

Row | Binder | EC50 [1] | EC50 [2] | EC50 [3] | EC50 [5] | EC50 [7] | binding result [4] | binding result [6]
1 | MHAB14-10 (Fc fusion, VHH-Fc fusion from CHO cells; also called parental MHAB14-10) QVQLVESGGGMVQPGGSLRLSCAASGITFRHYTMSWYRQAPGKERELVASITYGGVTTNYADSVKGRFTLSRDDAKTTAYLQMTGLKPEDTAVYYCHADWTAAGLNHWGQGTQVTVSS[human IgG1 Fc with changes not printed] | 1.76 ng/mL | 1.19 ng/mL | – | – | – | – | –
2 | MHAB14-14 (Fc fusion, VHH-Fc fusion from CHO cells; also called parental MHAB14-14) QVQLVESGGGLVQPGGSLRLSCAASGFIFGNYPMNWYRQAPGKEREFVAVITRDGGVTRYAASVKGRFTITRDNAKNTVFLQMNSLKLEDTAVYYCHNPNYNAWGQGTQVTVAS[human IgG1 Fc with changes not printed] | 3.01 ng/mL | – | 2.01 ng/mL | – | – | – | –

Further lines, with some results ahead:

Row | EC50 [1] | EC50 [2] | EC50 [3] | EC50 [5] | EC50 [7] | Binder | binding result [4] | binding result [6]
3 | – | 1.47 ng/mL | – | – | – | MHAB14-10-5 (Fc fusion, humanized VHH-Fc fusion) QVQLVESGGGLVQPGGSLRLSCAASGITFRHYTMSWVRQAPGKERELVASITYGGVTTYYADSVKGRFTISRDNAKNTLYLQMNSLRPEDTAVYYCHADWTAAGLNHWGQGTQVTVSS[human IgG1 Fc with changes not printed] | – | –
4 | – | – | 4.97 ng/mL | 8.45 ng/mL | 9.91 ng/mL | MHAB14-14-6 (Fc fusion, humanized VHH-Fc fusion) QVQLVESGGGLVQPGGSLRLSCAASGFIFGNYPMNWYRQAPGKEREFVAVITRDGGVTYYADSVKGRFTISRDNAKNTVYLQMNSLRAEDTAVYYCHNPNYNAWGQGTQVTVSS[human IgG1 Fc with changes not printed] | no binding (tested: 10 µg/mL (initial concentration)) | no binding (tested: 10 µg/mL (initial concentration))

Reference: patent EP4818210A1 (Minghui Pharmaceutical (Hangzhou) Ltd., dated 2025)
